Some of the results follow. Many values rest on one well or one pass, so single values are uncertain.
Each compound was assayed on MEL-HO (assay: cell count relative to DMSO control; melanoma cells; higher = more viable cells). Conditions: library dose: low library concentration; 72 h.
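Note: cell number obtained by counting DAPI-stained nuclei in high-throughput microscope images with image analysis software, screen run in 1,536-well plates.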

Row | SMILES | cell count [%]
1 | C[C@]12O[C@H](C[C@]1(O)CO)n1c3ccccc3c3c4c(c5c6ccccc6n2c5c31)CNC4=O [Lestaurtinib] + O=C(O)[C@@H]1[O][Sb](=[O])([O][Sb]2(=[O])[O][C@H]([C@H](O)CO)[C@H](O)[C@H](C(=O)O)[O]2)[O][C@H]([C@H](O)CO)[C@@H]1O [stibogluconate] (first compound 0.004 µM, partner dose 2 µM) | 97.4
2 | C[C@]12O[C@H](C[C@]1(O)CO)n1c3ccccc3c3c4c(c5c6ccccc6n2c5c31)CNC4=O [Lestaurtinib] + O=C(O)c1ccc2c(c1)nc(Nc1cccc(Cl)c1)c1ccncc12 [CX4945] (first compound 0.004 µM, partner dose 0.4 µM) | 89.7
3 | C[As](C)SC[C@H](NC(=O)CC[C@H](N)C(=O)O)C(=O)NCC(=O)O [Darinaparsin] + O=C1NC(=O)/C(=C/c2ccc(-c3ccc(F)cc3O)o2)S1 [AS252424] (first compound 0.4 µM, partner dose 1 µM) | 93.2
4 | C[C@]12O[C@H](C[C@]1(O)CO)n1c3ccccc3c3c4c(c5c6ccccc6n2c5c31)CNC4=O [Lestaurtinib] + CC(C)C[C@H](NC(=O)[C@H](Cc1ccccc1)NC(=O)c1cnccn1)B(O)O [Bortezomib] (first compound 0.004 µM, partner dose 0.001 µM) | 101
5 | C[C@]12O[C@H](C[C@]1(O)CO)n1c3ccccc3c3c4c(c5c6ccccc6n2c5c31)CNC4=O [Lestaurtinib] + N.N.[Cl][Pt][Cl] [cisplatin] (first compound 0.004 µM, partner dose 1.6 µM) | 90.4

— the supplement of paper PMC4604168 (melanoma cell lines)
